Our source for the switch fluorescence ratio values is the supplement of paper PMC10126150.

Values marked as one replicate rest on one cluster of the flow cell; about a third of the high ones do not repeat.

The series has as its system ATP. As to the kind of experiment: switch fluorescence ratio, 500 uM ATP over buffer (Cy3 cluster intensity, sum of 5 cycles each) (fold (ratio)); higher = stronger signal-on switching upon ATP binding; sequences stand for … in TCGTCGGCAGCGTCAGATGTGTATAAGAGACAGTTTTTTTTTTTTTTTTTTTTTTTTT…TC. To be noted: aptamer strand: ATP DNA aptamer (quencher-CACCTGGGGGAGTATTGCGGAGGAAGG + anchor), 100 nM annealed; ATP concentration: 500 uM; one replicate. The method, boiled down:
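Clusters with intensities outside 100-1000 RFU were excluded. The remaining Cy3-labelled switching-strand clusters on a modified Illumina MiSeq flow-cell had been annealed to 100 nM quencher-labelled ATP aptamer and imaged in selection buffer, then after 15 min with 500 uM ATP at 22 °C, for five cycles separated by NaOH stripping and re-annealing. The fluorescence ratio, averaged per switch-domain sequence, is each cluster's summed target-cycle Cy3 intensity over its summed buffer-cycle Cy3 intensity.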
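Also: ATP exposure 15 min at 22 °C before imaging.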

On to CTCTCGTCTG, for which the switch fluorescence ratio was found to be 1.06.

As for GCTGGACTTA, the switch fluorescence ratio was determined as 0.994.

Take GAGCAGTGTC: the switch fluorescence ratio was determined as 1.07.

In the case of AGCCAATGGC, the switch fluorescence ratio worked out at 1.

For CTGGCACTG, the switch fluorescence ratio is 0.971.

Regarding TTACTGATGC, the switch fluorescence ratio came to 1.05.

Turning to CGTGGTCTGT, the switch fluorescence ratio was 0.959.

As to GAAACCTGTT, the switch fluorescence ratio amounted to 0.944.

As to TTACTTACAA, the switch fluorescence ratio amounted to 1.09.

ATATCACACT: the switch fluorescence ratio was determined as 1.01.

For TAGTGCTGCT, the switch fluorescence ratio is 1.01.

On to AAGTCCGTT, for which the switch fluorescence ratio was 1.08.

Turning to ACGGTAACTA, the switch fluorescence ratio was 1.02.

On to AATGGGAATA, for which the switch fluorescence ratio is 0.986.

As for CGTAGGGATT, the switch fluorescence ratio was 1.02.

Consider ATCGTGTAGA, for which the switch fluorescence ratio came to 0.989.

On to TCTGCTTTGC, for which the switch fluorescence ratio came out at 1.07.

Take TCGAGGGCCT: the switch fluorescence ratio turned out to be 1.01.

As for ACACGAGGTG, the switch fluorescence ratio was determined as 1.15.

In the case of TGTTTTTACA, the switch fluorescence ratio was 0.965.

As to TGATCCTGGT, the switch fluorescence ratio came out at 0.989.

GCCTGTGTCA: the switch fluorescence ratio is 0.975.

Turning to CGGAAGAGAC, the switch fluorescence ratio stood at 1.03.

ATATCGACAC: the switch fluorescence ratio stood at 1.04.

For the sequence GGTACGTATA, the switch fluorescence ratio was 1.15.

With CCATTTATGG, the switch fluorescence ratio was determined as 1.02.

Consider ATAATCGATG, for which the switch fluorescence ratio stood at 0.976.

On to TTCCGGTCCA, for which the switch fluorescence ratio amounted to 1.01.

For TCACGTTATA, the switch fluorescence ratio came out at 1.21.

For AAGGTTATGA, the switch fluorescence ratio came out at 1.02.

In the case of GACCGTTAGT, the switch fluorescence ratio worked out at 1.

Take TTAGATCAAC: the switch fluorescence ratio turned out to be 0.922.

Consider TTCTGTAGAT, for which the switch fluorescence ratio was 0.993.

On to AGCCTCGTCT, for which the switch fluorescence ratio came to 0.981.

Take CGAACGGTTA: the switch fluorescence ratio came to 1.14.

In the case of GACCTGCGAA, the switch fluorescence ratio worked out at 1.13.

On to ACTCGGTGT, for which the switch fluorescence ratio was 1.07.

For the sequence TGTAAGTGGG, the switch fluorescence ratio came out at 0.991.

Turning to GCATTAGACT, the switch fluorescence ratio worked out at 0.953.

For ATAACCTATT, the switch fluorescence ratio came to 1.02.

For the sequence AGCGGGACGT, the switch fluorescence ratio is 1.01.

Take AGAAACCGCA: the switch fluorescence ratio came out at 2.82.

With GCAGTAACG, the switch fluorescence ratio turned out to be 0.994.

Take AGTAAACAAA: the switch fluorescence ratio is 1.02.

With GAGAGCAGT, the switch fluorescence ratio came out at 1.02.

On to AGGACAAAAC, for which the switch fluorescence ratio turned out to be 1.03.

For CAGCAGCAAT, the switch fluorescence ratio turned out to be 3.08.

As to ATATTGAACG, the switch fluorescence ratio stood at 1.04.

As to CATAGCGAA, the switch fluorescence ratio was 1.11.

For the sequence CGATAGGTCA, the switch fluorescence ratio turned out to be 1.02.

GGCTTGTTCG: the switch fluorescence ratio was 1.01.

Turning to CCAGAAATTA, the switch fluorescence ratio stood at 1.

Consider TCTTCGTTGC, for which the switch fluorescence ratio stood at 1.15.

TAACTAACTC: the switch fluorescence ratio is 1.04.

On to TTTCGGGATC, for which the switch fluorescence ratio was 1.02.

For the sequence ATAAGGAT, the switch fluorescence ratio turned out to be 0.993.

For GAGAAACAGC, the switch fluorescence ratio came to 0.962.

Turning to AATATTCGGT, the switch fluorescence ratio came out at 1.

For the sequence GGCCGGTGCT, the switch fluorescence ratio was 1.02.

In the case of TTGACAATCA, the switch fluorescence ratio was 0.972.

For TGATGGGAA, the switch fluorescence ratio amounted to 1.02.

GGCGTGTGAA: the switch fluorescence ratio was 0.99.

As to TGCCACTGAA, the switch fluorescence ratio was 1.07.

As for TTCTTCCAAG, the switch fluorescence ratio came to 1.34.

With CTGGATGGC, the switch fluorescence ratio came out at 0.992.

Take AGAGTCCGGT: the switch fluorescence ratio worked out at 1.01.

In the case of AGTGTGAGCG, the switch fluorescence ratio came to 1.02.

For the sequence GCGAGACGGG, the switch fluorescence ratio is 1.04.

Regarding TGAAGGCGGT, the switch fluorescence ratio is 1.06.

For the sequence GTACGTCACA, the switch fluorescence ratio amounted to 1.75.

As for CGGATAAGAA, the switch fluorescence ratio is 0.97.

ATCTTTCCGG: the switch fluorescence ratio came out at 1.04.

Regarding ATTCGTCAGA, the switch fluorescence ratio was 0.984.

Turning to GTAATAAGG, the switch fluorescence ratio was found to be 0.967.

Take CCAGCGCCCG: the switch fluorescence ratio was 1.01.

As to GAGTTATACG, the switch fluorescence ratio came out at 0.954.

Consider ATTATCGGTG, for which the switch fluorescence ratio worked out at 0.963.

As for TCAAGGACCT, the switch fluorescence ratio stood at 1.16.

As for ACGATGTTCT, the switch fluorescence ratio stood at 0.969.
